These are yes or no findings as the source states them, for the method shown. In cells and extracts the contact can be indirect. Some results given as binding are weak or reduced against the parent protein; the word gives no strength.

Sequences of proteins named here, by UniProt entry; tags and fusion partners are left off. Residues count along the entry.
UniProt P97772, residues 21-1199: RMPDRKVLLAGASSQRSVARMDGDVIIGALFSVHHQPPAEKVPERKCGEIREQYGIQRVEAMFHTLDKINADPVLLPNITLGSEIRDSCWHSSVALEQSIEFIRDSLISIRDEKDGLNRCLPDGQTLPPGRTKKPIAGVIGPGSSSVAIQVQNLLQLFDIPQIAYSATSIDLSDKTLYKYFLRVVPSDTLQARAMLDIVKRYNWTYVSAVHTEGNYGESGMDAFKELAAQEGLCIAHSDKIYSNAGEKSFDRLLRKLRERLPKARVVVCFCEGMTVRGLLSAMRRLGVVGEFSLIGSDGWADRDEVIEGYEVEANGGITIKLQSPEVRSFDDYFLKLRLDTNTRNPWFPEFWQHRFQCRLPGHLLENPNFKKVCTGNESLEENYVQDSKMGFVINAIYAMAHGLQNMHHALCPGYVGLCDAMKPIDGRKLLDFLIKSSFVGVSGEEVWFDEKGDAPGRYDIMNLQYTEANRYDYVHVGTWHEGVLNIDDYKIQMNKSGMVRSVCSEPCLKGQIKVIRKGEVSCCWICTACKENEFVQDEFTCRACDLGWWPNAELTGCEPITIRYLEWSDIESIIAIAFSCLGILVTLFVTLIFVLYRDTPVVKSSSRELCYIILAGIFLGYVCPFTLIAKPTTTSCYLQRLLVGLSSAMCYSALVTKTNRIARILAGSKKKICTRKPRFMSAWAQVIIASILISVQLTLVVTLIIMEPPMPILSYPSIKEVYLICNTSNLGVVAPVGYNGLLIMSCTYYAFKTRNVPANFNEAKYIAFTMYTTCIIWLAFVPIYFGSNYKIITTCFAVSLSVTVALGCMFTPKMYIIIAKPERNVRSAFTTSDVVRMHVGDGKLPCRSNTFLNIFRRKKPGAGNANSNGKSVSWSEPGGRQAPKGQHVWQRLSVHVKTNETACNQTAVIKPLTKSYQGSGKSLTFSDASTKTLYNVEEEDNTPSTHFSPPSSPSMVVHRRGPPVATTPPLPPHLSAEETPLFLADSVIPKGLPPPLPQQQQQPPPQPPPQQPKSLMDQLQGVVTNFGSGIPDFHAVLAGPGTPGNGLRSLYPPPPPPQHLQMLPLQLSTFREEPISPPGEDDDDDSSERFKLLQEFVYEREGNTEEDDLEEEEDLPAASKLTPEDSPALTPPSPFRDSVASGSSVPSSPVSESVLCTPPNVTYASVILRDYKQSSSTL
UniProt Q14BI2, residues 19-872: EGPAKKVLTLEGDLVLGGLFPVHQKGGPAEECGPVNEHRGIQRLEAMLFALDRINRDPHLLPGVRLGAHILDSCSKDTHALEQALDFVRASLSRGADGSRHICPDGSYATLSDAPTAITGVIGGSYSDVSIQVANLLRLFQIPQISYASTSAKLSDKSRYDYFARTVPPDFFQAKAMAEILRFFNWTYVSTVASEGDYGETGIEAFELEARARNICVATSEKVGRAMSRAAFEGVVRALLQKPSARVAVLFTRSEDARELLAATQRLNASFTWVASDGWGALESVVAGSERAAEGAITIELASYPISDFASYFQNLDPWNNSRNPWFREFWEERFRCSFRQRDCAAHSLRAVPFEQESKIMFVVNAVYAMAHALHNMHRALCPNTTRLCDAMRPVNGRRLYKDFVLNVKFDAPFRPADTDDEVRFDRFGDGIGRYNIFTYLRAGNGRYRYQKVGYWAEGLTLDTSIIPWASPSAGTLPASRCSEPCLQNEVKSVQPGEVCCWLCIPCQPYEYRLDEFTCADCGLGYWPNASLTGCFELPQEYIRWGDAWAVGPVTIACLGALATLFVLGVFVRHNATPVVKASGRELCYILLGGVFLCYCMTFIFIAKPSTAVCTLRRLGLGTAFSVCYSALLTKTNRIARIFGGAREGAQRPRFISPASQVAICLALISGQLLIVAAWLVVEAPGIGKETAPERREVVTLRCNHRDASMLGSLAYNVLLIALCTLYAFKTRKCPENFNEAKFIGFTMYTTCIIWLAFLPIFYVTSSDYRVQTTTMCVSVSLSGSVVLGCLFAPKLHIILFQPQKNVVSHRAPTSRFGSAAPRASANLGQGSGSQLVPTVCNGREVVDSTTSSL
UniProt Q9QYS2, residues 23-879: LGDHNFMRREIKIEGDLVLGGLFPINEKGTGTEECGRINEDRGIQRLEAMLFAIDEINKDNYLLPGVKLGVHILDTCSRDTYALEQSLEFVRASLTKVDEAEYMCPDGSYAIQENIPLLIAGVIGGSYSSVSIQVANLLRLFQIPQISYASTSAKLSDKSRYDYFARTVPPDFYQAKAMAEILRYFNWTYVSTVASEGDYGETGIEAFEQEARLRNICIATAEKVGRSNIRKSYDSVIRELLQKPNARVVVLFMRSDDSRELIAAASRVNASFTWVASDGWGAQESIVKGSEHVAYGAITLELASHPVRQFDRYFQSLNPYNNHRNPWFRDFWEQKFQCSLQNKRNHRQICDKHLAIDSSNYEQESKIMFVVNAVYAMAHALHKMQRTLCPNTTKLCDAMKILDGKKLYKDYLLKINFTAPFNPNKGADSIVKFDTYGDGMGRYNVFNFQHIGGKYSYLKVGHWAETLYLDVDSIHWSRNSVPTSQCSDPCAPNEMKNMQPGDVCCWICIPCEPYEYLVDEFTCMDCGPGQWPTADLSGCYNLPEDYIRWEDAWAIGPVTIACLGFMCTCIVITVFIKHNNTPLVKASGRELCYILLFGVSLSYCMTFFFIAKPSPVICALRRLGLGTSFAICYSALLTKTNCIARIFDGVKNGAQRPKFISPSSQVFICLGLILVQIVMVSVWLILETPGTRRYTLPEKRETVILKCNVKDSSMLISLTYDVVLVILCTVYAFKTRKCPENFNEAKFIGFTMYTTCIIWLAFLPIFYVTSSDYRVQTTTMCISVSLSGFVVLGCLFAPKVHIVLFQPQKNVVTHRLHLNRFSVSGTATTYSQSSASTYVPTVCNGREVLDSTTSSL
UniProt Q3UVX5, residues 19-1203: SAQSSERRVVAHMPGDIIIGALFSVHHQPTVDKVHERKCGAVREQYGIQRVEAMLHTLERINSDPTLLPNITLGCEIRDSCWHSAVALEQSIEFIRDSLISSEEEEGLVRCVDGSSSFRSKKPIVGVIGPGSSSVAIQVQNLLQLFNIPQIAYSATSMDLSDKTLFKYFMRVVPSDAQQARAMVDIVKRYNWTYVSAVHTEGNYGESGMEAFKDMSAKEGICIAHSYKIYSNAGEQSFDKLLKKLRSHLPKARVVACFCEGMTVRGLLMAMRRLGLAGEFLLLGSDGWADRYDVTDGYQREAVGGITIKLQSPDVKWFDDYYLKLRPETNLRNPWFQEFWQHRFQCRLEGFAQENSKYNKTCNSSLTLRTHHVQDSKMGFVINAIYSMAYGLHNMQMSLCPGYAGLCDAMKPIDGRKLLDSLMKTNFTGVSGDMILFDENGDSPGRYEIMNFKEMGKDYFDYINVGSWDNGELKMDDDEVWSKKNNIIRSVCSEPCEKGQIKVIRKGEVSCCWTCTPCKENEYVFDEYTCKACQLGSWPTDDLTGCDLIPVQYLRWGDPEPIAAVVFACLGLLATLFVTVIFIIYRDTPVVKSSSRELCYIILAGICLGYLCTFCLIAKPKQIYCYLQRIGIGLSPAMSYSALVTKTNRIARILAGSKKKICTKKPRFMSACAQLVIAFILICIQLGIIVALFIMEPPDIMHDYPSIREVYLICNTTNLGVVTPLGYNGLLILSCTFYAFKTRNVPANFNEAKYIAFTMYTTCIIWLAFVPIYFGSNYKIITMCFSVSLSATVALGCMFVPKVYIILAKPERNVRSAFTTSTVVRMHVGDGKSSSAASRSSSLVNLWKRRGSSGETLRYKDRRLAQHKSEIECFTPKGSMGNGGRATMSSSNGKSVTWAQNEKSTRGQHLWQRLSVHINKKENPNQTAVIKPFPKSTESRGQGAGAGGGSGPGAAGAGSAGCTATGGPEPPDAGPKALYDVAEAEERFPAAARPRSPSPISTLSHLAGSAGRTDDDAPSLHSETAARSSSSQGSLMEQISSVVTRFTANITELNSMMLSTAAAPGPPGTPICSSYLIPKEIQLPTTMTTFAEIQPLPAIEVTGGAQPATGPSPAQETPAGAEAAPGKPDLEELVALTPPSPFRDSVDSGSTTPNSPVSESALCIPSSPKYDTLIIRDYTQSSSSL
UniProt Q5NCH9, residues 24-871: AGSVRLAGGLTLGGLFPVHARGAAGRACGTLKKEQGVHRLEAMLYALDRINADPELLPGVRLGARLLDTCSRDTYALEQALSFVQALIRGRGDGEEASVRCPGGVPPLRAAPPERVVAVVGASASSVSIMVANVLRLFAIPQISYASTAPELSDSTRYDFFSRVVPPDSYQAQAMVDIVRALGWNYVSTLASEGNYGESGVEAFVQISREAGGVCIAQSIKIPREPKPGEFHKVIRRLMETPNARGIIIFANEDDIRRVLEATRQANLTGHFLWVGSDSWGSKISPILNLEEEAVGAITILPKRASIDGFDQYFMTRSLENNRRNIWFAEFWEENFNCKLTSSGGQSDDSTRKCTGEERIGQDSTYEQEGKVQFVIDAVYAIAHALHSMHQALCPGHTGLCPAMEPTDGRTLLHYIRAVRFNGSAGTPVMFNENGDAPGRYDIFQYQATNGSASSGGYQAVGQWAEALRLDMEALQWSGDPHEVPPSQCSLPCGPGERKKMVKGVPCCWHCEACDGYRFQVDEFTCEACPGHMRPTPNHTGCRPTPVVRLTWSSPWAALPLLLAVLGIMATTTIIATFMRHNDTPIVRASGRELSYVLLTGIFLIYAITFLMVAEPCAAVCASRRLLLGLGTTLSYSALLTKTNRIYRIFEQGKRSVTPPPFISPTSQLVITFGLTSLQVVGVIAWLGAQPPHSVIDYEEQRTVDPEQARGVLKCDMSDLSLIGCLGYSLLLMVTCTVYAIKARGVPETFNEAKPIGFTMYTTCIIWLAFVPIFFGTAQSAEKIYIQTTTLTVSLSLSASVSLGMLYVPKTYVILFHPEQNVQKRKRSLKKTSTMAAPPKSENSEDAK

The record followed here is PMC5720820.

One experiment deals with cellular prion protein PrP^C (wild type, endogenous) (mouse (endogenous in C57BL/6J brain)) (UniProt P04925). Kind of experiment: co-IP.
Consider “metabotropic glutamate receptor 1 (mGluR1) (from UniProt P97772 21-1199)”, for which the binding result is listed as “binds”.

For the substance “metabotropic glutamate receptor 2 (of mGluR2/3) (from UniProt Q14BI2 19-872)”, the binding result was “no binding”.

With “metabotropic glutamate receptor 3 (of mGluR2/3) (from UniProt Q9QYS2 23-879)”, the binding entry is reported as “no binding”.

Turning to “metabotropic glutamate receptor 5 (mGluR5) (from UniProt Q3UVX5 19-1203)”, the binding result is “binds”.

Take “metabotropic glutamate receptor 6 (mGluR6) (from UniProt Q5NCH9 24-871)”: the binding entry is “no binding”.

Another experiment deals with metabotropic glutamate receptor 1 (mGluR1) (mouse (endogenous in brain)) (UniProt P97772). Briefly: co-IP.
Turning to “cellular prion protein PrP^C (wild type, endogenous) (from UniProt P04925 23-230)”, the binding entry is listed as “binds”.
